The chains are these.
T1: RBFOX1 RRM (Homo sapiens, UniProt Q9NWB1 109-208)
T1 sequence: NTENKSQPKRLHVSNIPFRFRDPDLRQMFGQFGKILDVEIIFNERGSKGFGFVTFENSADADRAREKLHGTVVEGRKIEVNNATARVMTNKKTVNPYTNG

B1: UAACAUG (DNA:RNA)
RNA: GGGAGACCGGAAUUCAGAUUGUCCUAACAUGUUAAAUCCCGUCGUAGCCACCA
DNA 1: CAATCTGAATTCCGGTCTCCC
DNA 2: TGGTGGCTACGACGGGATT
B2: UCAGUAU (DNA:RNA)
RNA: B1 RNA with A26C, C28G, A29U, U30A, G31U
DNA 1: CAATCTGAATTCCGGTCTCCC
DNA 2: TGGTGGCTACGACGGGATT
B3: GGUCGCA (DNA:RNA)
RNA: B1 RNA with U25G, A26G, A27U, A29G, U30C, G31A
DNA 1: CAATCTGAATTCCGGTCTCCC
DNA 2: TGGTGGCTACGACGGGATT
B4: GGGUUAA (DNA:RNA)
RNA: GGGAGACCGGAAUUCAGAUUGUCCGGGUUAAUUAAAUCCCGUCGUAGCCACCA
DNA 1: CAATCTGAATTCCGGTCTCCC
DNA 2: TGGTGGCTACGACGGGATT
B5: GCCGUGC (DNA:RNA)
RNA: B4 RNA with G26C, G27C, U28G, A30G, A31C
DNA 1: CAATCTGAATTCCGGTCTCCC
DNA 2: TGGTGGCTACGACGGGATT
B6: CUGACCG (DNA:RNA)
RNA: B4 RNA with G25C, G26U, U28A, U29C, A30C, A31G
DNA 1: CAATCTGAATTCCGGTCTCCC
DNA 2: TGGTGGCTACGACGGGATT
B7: GUACAAU (DNA:RNA)
RNA: B1 RNA with U25G, A26U, U30A, G31U
DNA 1: CAATCTGAATTCCGGTCTCCC
DNA 2: TGGTGGCTACGACGGGATT
B8: UUAUCAG (DNA:RNA)
RNA: B1 RNA with A26U, C28U, A29C, U30A
DNA 1: CAATCTGAATTCCGGTCTCCC
DNA 2: TGGTGGCTACGACGGGATT
B9: AGCAGUU (DNA:RNA)
RNA: B4 RNA with G25A, G27C, U28A, U29G, A30U, A31U
DNA 1: CAATCTGAATTCCGGTCTCCC
DNA 2: TGGTGGCTACGACGGGATT
B10: UCCAACA (DNA:RNA)
RNA: B1 RNA with A26C, A27C, C28A, U30C, G31A
DNA 1: CAATCTGAATTCCGGTCTCCC
DNA 2: TGGTGGCTACGACGGGATT
B11: UUGGGGA (DNA:RNA)
RNA: B4 RNA with G25U, G26U, U28G, U29G, A30G
DNA 1: CAATCTGAATTCCGGTCTCCC
DNA 2: TGGTGGCTACGACGGGATT
B12: CCAUUAA (DNA:RNA)
RNA: B4 RNA with G25C, G26C, G27A
DNA 1: CAATCTGAATTCCGGTCTCCC
DNA 2: TGGTGGCTACGACGGGATT
B13: AGUCAUG (DNA:RNA)
RNA: B1 RNA with U25A, A26G, A27U
DNA 1: CAATCTGAATTCCGGTCTCCC
DNA 2: TGGTGGCTACGACGGGATT
B14: AACCACA (DNA:RNA)
RNA: B1 RNA with U25A, A27C, U30C, G31A
DNA 1: CAATCTGAATTCCGGTCTCCC
DNA 2: TGGTGGCTACGACGGGATT
B15: GUCUAGU (DNA:RNA)
RNA: B4 RNA with G26U, G27C, U29A, A30G, A31U
DNA 1: CAATCTGAATTCCGGTCTCCC
DNA 2: TGGTGGCTACGACGGGATT
B16: UGUUCGG (DNA:RNA)
RNA: B4 RNA with G25U, G27U, U29C, A30G, A31G
DNA 1: CAATCTGAATTCCGGTCTCCC
DNA 2: TGGTGGCTACGACGGGATT
B17: CUUGAUU (DNA:RNA)
RNA: B1 RNA with U25C, A26U, A27U, C28G, G31U
DNA 1: CAATCTGAATTCCGGTCTCCC
DNA 2: TGGTGGCTACGACGGGATT
B18: UUGGGGU (DNA:RNA)
RNA: B4 RNA with G25U, G26U, U28G, U29G, A30G, A31U
DNA 1: CAATCTGAATTCCGGTCTCCC
DNA 2: TGGTGGCTACGACGGGATT
B19: UGGCUUC (DNA:RNA)
RNA: B4 RNA with G25U, U28C, A30U, A31C
DNA 1: CAATCTGAATTCCGGTCTCCC
DNA 2: TGGTGGCTACGACGGGATT
B20: GUGUAUC (DNA:RNA)
RNA: B4 RNA with G26U, U29A, A30U, A31C
DNA 1: CAATCTGAATTCCGGTCTCCC
DNA 2: TGGTGGCTACGACGGGATT

Residue numbers refer to the chain shown, from its start. Some of the results follow.

This assay deals with T1, RBFOX1 RRM. Kind of assay: EMSA; HiTS-Eq, 1 nM pool, 10 min; buffer printed only for the single-RNA assays: 10 mM Tris pH 7.5, 150 mM NaCl, 3.4 mM EDTA, 0.001% NP-40, 30 C. The following applies: tags: His6 N-terminal (pET28a); label: 5' 32P. Put shortly:
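Relative association constants, normalised to the cognate motif, were derived by comparing read counts of each RNA species with those of the control reaction. The RNA sequenced was the free fraction, separated by 8% native PAGE after a 10 min equilibration in 50 µL of 1 nM 5′-radiolabelled RNA (7 randomized nucleotides) with increasing concentrations of purified wild-type or mutant RbFox RRM.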
As to B1, the binding signal is 0.0098 KA relative to UGCAUGU.

As to B2, the binding signal was 0.00817 KA relative to UGCAUGU.

On to B3, for which the binding signal was 0.0125 KA relative to UGCAUGU.

For the molecule B4, the binding signal is 0.0149 KA relative to UGCAUGU.

As to B5, the binding signal is 0.02 KA relative to UGCAUGU.

Turning to B6, the binding signal is 0.0123 KA relative to UGCAUGU.

B7: the binding signal was 0.0045 KA relative to UGCAUGU.

As to B8, the binding signal was 0.0137 KA relative to UGCAUGU.

With B9, the binding signal was 0.00834 KA relative to UGCAUGU.

Take B10: the binding signal is 0.00152 KA relative to UGCAUGU.

Turning to B11, the binding signal was 0.00758 KA relative to UGCAUGU.

Consider B12, for which the binding signal was 0.00229 KA relative to UGCAUGU.

Consider B13, for which the binding signal is 0.0134 KA relative to UGCAUGU.

B14: the binding signal was 0.00121 KA relative to UGCAUGU.

B15: the binding signal was 0.0158 KA relative to UGCAUGU.

For B16, the binding signal is 0.024 KA relative to UGCAUGU.

On to B17, for which the binding signal is 0.0132 KA relative to UGCAUGU.

Take B18: the binding signal was 0.0132 KA relative to UGCAUGU.

As to B19, the binding signal was 0.0201 KA relative to UGCAUGU.

Consider B20, for which the binding signal is 0.0101 KA relative to UGCAUGU.
